Experimental data as given in PubChem BioAssay AID463173 (ICCB-Longwood Screening Facility, Harvard Medical School, 2010).
Out of some 52,000 compounds screened, about 4,300 (8.3%) were called active. No stated cut-off is given here; in the data, active means survival mostly below about 52% (no sharp cut-off); inactive means mostly above about 56%. The list shows a part of the results.

tested on: DeltatarO mutant; assay: S. aureus survival, RN4220 and DeltatarO strains – OD600, teichoic acid synthesis inhibitors, primary screen (AID 463173); details: S. aureus RN4220 wild type/DeltatarO growth, OD600, 18 h, active compounds read low, screened at 18.75 µg/mL (by protocol)

Row | Structure (SMILES) | survival
1 | CCc1cccc(NS(=O)(=O)c2c(C)[nH]c(=O)[nH]c2=O)c1 | inactive: 46%
2 | O=C(NCc1cccc(Cl)c1)c1c2c(nc3ccccc13)C(=O)N(C1CCCCC1)C2 | inactive: 144%
3 | CC(=O)Nc1cccc(NC(=O)c2cc3c(=O)n4cccc(C)c4nc3n2C)c1 | inactive: 105%
4 | CCOc1ccccc1Nc1ncnc2c1cnn2-c1ccc(C)cc1 | inactive: 87%
5 | CCCn1cc(S(=O)(=O)c2ccc(C)cc2)c(=O)c2cc(F)c(N3CCCC3)cc21 | inactive: 80%
6 | COc1cc(NC(=O)c2ccc(C)c(Cl)c2)ccc1NC(=O)c1cc2ccccc2o1 | inactive: 63%
7 | COc1ccc(CC(=O)Nc2nc3c(s2)CC(C)CC3)cc1 (stereo not drawn) | inactive: 75%
8 | Cc1ccc(NC(=O)C2CCCN(S(=O)(=O)c3ccc4[nH]c(=O)ccc4c3)C2)cc1Cl (stereo not drawn) | inactive: 75%
9 | COc1ccc2c(c1)c1c(c(=O)n(CCc3ccccc3)c(=O)n1Cc1cccc(Cl)c1)n2C | inactive: 76%
10 | COc1cc2c(cc1OC)C(c1cc3cc4c(cc3[nH]c1=O)OCO4)N(C(=O)c1ccco1)CC2 (stereo not drawn) | inactive: 94%
11 | COc1ccc(-n2ncc3c(NCCCOC(C)C)ncnc32)cc1 | active: 0%
12 | O=C(CCc1nc(CN2CCN(S(=O)(=O)c3ccc(Br)cc3)CC2)no1)N1CCCCC1 | inactive: 70%
13 | CCCCNC(=O)C1CCCN(S(=O)(=O)CCC)C1 (stereo not drawn) | inactive: 82%
14 | CCc1nn(CC(=O)NC2CC2)c(=O)c2cc3c(OC)cccc3n12 | inactive: 83%
15 | COc1cc(NC(=O)Cn2c(=O)n(CC3CCC(C(=O)NCCc4ccccc4)CC3)c(=O)c3ccccc32)cc(OC)c1 (stereo not drawn) | inactive: 107%
16 | COc1cc2cc(CNc3ccccc3)c(=O)n(CC(=O)Nc3cccc(Cl)c3C)c2cc1OC | inactive: 49%
17 | COc1cccc(Cn2cc(C(=O)c3ccccc3)c(=O)c3cc4c(cc32)OCO4)c1 | inactive: 94%
18 | CCCCOc1ccc(CNC(=O)c2cccc(NC(=O)N3CCSc4ncccc43)c2)cc1 | inactive: 89%
19 | Cc1c(C(=O)NCc2ccc(Cl)cc2)oc2ccc3c(c12)C(=O)CC(C)(C)O3 | active: 53%
20 | Cc1ccc(CNC(=O)CSc2ncc3c(n2)-c2cc(Cl)ccc2N(C)S3(=O)=O)cc1 | inactive: 69%
21 | COc1ccccc1CNC(=O)C1CCN(c2nc3ccc(Cl)cc3[nH]2)CC1 | active: 25%
22 | COc1cc2c(=O)n(CCC(=O)NCC3CCCO3)c(=O)n(CC(=O)Nc3ccccc3C)c2cc1OC (stereo not drawn) | inactive: 136%
23 | CCc1nn(CC(=O)NCCc2ccc(OC)cc2OC)c(=O)c2cc3occc3n12 | inactive: 68%
